Measured values taken from patent US20230250184A1 (NANJING LEGEND BIOTECH, published 2023).

Tests used:
Human CD22 Protein = biological target: T1, Human CD22 Protein (human, UniProt P20273 20-687); assay: SPR (Biacore 8K), 25 C, mAb captured on protein A chip, human CD22 protein as analyte, 1:1 model
T1 construct: They are treated here as one molecule; also called CD22 antigen
T1 sequence (looked up): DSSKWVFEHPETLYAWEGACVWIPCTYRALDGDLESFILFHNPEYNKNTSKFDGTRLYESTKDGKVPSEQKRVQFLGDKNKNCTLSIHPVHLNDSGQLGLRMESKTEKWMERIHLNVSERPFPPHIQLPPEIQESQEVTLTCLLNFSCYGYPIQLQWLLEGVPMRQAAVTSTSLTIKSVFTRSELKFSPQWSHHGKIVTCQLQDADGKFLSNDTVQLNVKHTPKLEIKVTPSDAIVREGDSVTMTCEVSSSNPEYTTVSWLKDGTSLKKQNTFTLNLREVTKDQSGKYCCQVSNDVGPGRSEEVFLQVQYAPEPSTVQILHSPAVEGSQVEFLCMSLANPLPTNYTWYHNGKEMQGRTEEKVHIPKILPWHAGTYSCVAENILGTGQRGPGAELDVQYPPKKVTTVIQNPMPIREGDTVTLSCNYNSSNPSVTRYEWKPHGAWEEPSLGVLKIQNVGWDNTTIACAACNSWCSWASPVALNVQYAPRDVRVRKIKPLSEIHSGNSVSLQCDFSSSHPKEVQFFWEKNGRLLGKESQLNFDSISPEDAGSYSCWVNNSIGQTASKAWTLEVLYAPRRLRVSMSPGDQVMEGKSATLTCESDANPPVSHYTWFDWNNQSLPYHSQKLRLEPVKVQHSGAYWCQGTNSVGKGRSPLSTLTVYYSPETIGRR

[1] = biological target: T2, human CD22 on cells (Daudi, Raji, Nalm.6, K562-CD22) (human, UniProt P20273 20-847); assay: flow cytometry on Daudi cells, PE anti-human IgG1 Fc detection
T2 construct: whole, on cells; also called CD22 receptor; CD22 positive cell lines
T2 sequence (looked up): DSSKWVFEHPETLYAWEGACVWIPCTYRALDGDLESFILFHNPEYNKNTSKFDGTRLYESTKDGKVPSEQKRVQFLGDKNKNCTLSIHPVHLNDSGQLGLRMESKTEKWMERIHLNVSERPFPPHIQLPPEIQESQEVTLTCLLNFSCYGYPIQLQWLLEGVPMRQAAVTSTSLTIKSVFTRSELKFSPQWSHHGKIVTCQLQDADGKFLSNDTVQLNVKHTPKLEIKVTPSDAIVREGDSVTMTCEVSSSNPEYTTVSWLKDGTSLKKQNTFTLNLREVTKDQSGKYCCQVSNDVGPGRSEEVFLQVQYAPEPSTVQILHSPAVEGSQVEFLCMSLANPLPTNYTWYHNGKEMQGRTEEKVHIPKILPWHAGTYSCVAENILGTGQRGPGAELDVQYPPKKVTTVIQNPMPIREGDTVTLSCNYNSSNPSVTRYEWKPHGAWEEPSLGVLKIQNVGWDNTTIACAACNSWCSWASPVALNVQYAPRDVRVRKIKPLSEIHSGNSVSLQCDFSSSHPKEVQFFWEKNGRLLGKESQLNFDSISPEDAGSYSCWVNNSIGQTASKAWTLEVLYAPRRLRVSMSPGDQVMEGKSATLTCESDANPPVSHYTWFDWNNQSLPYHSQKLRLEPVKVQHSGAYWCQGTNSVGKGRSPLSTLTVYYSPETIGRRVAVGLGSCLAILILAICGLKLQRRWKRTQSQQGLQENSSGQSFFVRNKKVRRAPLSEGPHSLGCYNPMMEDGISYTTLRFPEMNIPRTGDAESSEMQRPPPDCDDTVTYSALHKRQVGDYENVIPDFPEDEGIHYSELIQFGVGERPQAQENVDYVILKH

[2] = biological target: T2, human CD22 on cells (Daudi, Raji, …); assay: flow cytometry on Raji cells, PE anti-human IgG1 Fc detection

Kd (Human CD22 Protein): 4760 pM
koff (Human CD22 Protein): 0.000528 s⁻¹
kon (Human CD22 Protein): 111000 M⁻¹ s⁻¹
EC50 [1]: 910 pM
EC50 [2]: 930 pM
B1: VHH-66-huIgG1Fc mAb (Fc fusion)
chain: EVQLVESGPGLVKPSQTLSLTCTVSGASITTGEFYWNWFRQPPGKGLEWMGAIAASGSTTYSPSFESRTSISRDTSENQFYLQLSSVTPEDTAVYYCGRSFGVAAVTTGQNRGQGTQVTVSS[human IgG1 Fc left out]
notes: VHH fused to the human IgG1 Fc fragment and expressed in Expi293F; the text around them names VHH-66-huIgG1Fc mAb; also called Anti-CD22 VHH-huIgG1Fc mAb; exemplary anti-CD22 VHH-huIgG1Fc mAb
